Values joined by “and” are separate entries in the source; they are usually repeats but may differ in a detail not shown here. Equal entries are not always repeated.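 Values below derive from 48-hour exposures of cells grown in 96-well plates, with endpoints linearly interpolated between the two concentrations bracketing the appropriate inhibition level. GI50 = concentration required for 50% inhibition of growth. TGI marks complete inhibition of growth.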
Tested on: NCI-H322M lung
Assay: DTP human tumour cell line panel, 48 h

Work on `c1ccc2[nH]c(CNc3ccc(C4C[Se]N=N4)cc3)nc2c1` (centres undefined) yielded a TGI of over 100 µM.
In the case of `C=CC(=O)N1C/C(=C\c2ccc(Cl)cc2)C(=O)/C(=C/c2ccc(Cl)cc2)C1`, the TGI is reported as 3.13 µM.
Work on `O=[N+]([O-])c1cc(Cl)ccc1Sc1ccccc1` yielded a TGI of over 100 µM.
`C(=C\c1ccccc1)/COc1ccccc1C(N1CCOCC1)n1nc2ccccc2n1` (centres undefined) showed a TGI of 44.6 µM.
With `COc1cccc(COc2cc(-n3cnc4ccccc43)sc2C(N)=O)c1` the GI50 was over 25 µM and the TGI was over 25 µM.
Molecule `COc1ccc(-c2c(C3=NCCCN3)nnn2-c2ccc([N+](=O)[O-])cc2)cc1` has a TGI of over 100 µM.
`C=C1C2Oc3ccccc3C1N(c1ccccc1)O2` (centres undefined) gave a TGI of over 100 µM.
With `CC(=O)Oc1c(C)c(C)c2c(c1C)CCC(C)(CC(=O)OCCCCCCCCCCC[P+](c1ccccc1)(c1ccccc1)c1ccccc1)O2` (centres undefined) the GI50 was 0.275 µM and the TGI was 1.01 µM.
In the case of `COC(=O)N1N=C(c2ccccc2)C1c1ccccc1` (centres undefined), the TGI is reported as over 100 µM.
In the case of `COc1cccc2c(=O)c3c(sc12)c(NCCCNCCO)nc1ccccc13`, the GI50 is reported as 1.59 µM and the TGI is reported as 3.12 µM.
`CCNCCNc1cc(-c2ccc(C#N)cc2)c(C#N)c2nc3ccccc3n12` gave a GI50 of 3.76 µM and a TGI of 15.3 µM.
`O=S1CSSC1` showed a TGI of 66.8 µM.
`Cc1cccc(C)c1N1C(=O)C(=O)C(c2nc3ccccc3s2)/C(=N/NC(=O)NN)C1=O` (centres undefined) gave a TGI of over 100 µM.
`CC1c2ccccc2N=C2SC(=S)N3CCN=C3N21` (centres undefined) showed a GI50 of over 100 µM and a TGI of over 100 µM.
Molecule `COc1cccc2c1OCC1Cc3ccccc3OC21` (centres undefined) has a TGI of over 100 µM.
For `N#CC(C#N)=c1c2nsnc2c(=C(C#N)C#N)c2nsnc12`, the TGI was 3.12 µM.
In the case of `O=S1(=O)c2cnccc2NC(=NCc2ccccc2)N1c1ccccc1`, the TGI is reported as over 100 µM.
For `CC(C)(C)OC(=O)NC1CCCC1=O` (centres undefined), the TGI was over 100 µM.
`Clc1ccc2c(c1)N(c1ncnc3ccc(-c4cnc5[nH]ncc5c4)cc13)CC2` showed a GI50 of 0.412 µM and a TGI of over 100 µM.
Work on `CCN(CC)CCO/N=C1\CC[C@H]2[C@@H]3CCc4cc(OC)ccc4[C@H]3CC[C@]12C` yielded a TGI of 7.71 µM.
With `CC(C)N1CN(c2ccccc2)C2(CCN(CCCC(=O)c3ccc(F)cc3)CC2)C1=O` the TGI was over 100 µM.
Molecule `CCOC(=O)C1(Cc2ccc3ccccc3c2)CCCCC(=O)N1` (centres undefined) has a TGI of over 100 µM.
Work on `CCNc1ncnc2sc(SCc3ccccc3)nc12` yielded a TGI of over 100 µM.
For `COc1ccc(NC(C)c2ccncc2)cc1` (centres undefined), the TGI was 44.7 µM.
In the case of `COc1ccc(OC)c2sc(N3C(=O)/C(=C/c4cccc([N+](=O)[O-])c4)N=C3c3ccccc3)nc12`, the TGI is reported as over 100 µM.
In the case of `O=C1CS(=O)(=O)C(c2cccc(Oc3ccccc3)c2)N1c1cc(Cl)ccc1Cl` (centres undefined), the TGI is reported as over 100 µM.
`COc1ccc(C(=O)c2nc3ccccc3n2CC(=O)c2ccc(Cl)cc2)cc1` showed a GI50 of over 66.1 µM and a TGI of over 100 µM.
In the case of `C/C(=C\CO)CC/C=C(\C)CNc1ccc([N+](=O)[O-])cc1`, the TGI is reported as 41.6 µM.
Work on `COc1ccc(-c2cnoc2-c2cc(OC)c3c(c2)OCCO3)cc1` yielded a GI50 of 0.0863 µM and a TGI of over 100 µM.
For `CSc1ccc(N(C)c2nc(C)nc3c2CCC3)cc1`, the GI50 was 19.9 µM and the TGI was over 100 µM.
Work on `CC1(C)N=C2C(=O)c3c([nH]c4ccccc34)[C@]3(C)CCC1CC23` (some centres undefined) yielded a TGI of over 6.25 µM.
`CC(C)/C(Cl)=N/OC(=O)Nc1ccc(OC(F)(F)F)cc1` gave a TGI of 30.4 µM.
`O=C1C=CC(=O)C(CNc2ccc(C(=O)OCc3ccccc3)cc2)=C1` gave a TGI of over 84.5 µM.
`CCOC(=O)NC(Nc1c(F)c(F)c(F)c(F)c1F)(C(F)(F)F)C(F)(F)F` showed a TGI of over 100 µM.
For `c1ccc([P+](CCCCCCCC[P+](c2ccccc2)(c2ccccc2)c2ccccc2)(c2ccccc2)c2ccccc2)cc1`, the TGI was over 100 µM.
`CC(C)Oc1ccc(C(=O)Cn2ccnc2)cc1-n1c(CN2CCN(C(=O)COc3ccc(Cl)cc3)CC2)nc2ccccc2c1=O` showed a GI50 of 28.7 µM and a TGI of over 100 µM.
`C[C@H]1[C@H](C)CC[C@]2(C(=O)OC3OC(CO)C(O)C(O)C3O)CC[C@]3(C)C(=CC[C@@H]4[C@@]5(C)C[C@H]6OC(=O)c7cc(O)c(O)c(O)c7-c7c(cc(O)c(O)c7O)C(=O)O[C@@H]6C(CO)(CO)[C@@H]5CC[C@]43C)[C@H]12` (some centres undefined) showed a TGI of over 100 µM.
With `c1ccc2c(c1)CCCC/C2=N/OCC1CO1` (centres undefined) the TGI was over 100 µM.
In the case of `Cc1cc(C)n(C2=NS(=O)(=O)c3ccccc3N2C)n1`, the TGI is reported as over 100 µM.
`Nc1cc(-c2ccc(Cl)cc2)nn1-c1nnc(/C=C/c2ccco2)c(=O)[nH]1` gave a GI50 of 1.61 µM and a TGI of 30.9 µM.
With `O=C(c1cccs1)C1NO[N+]([O-])=C1c1cccs1` (centres undefined) the GI50 was 24.7 µM and the TGI was over 57.2 µM.
`CN1N=C(c2ccncc2)OC1c1ccccc1F` (centres undefined) gave a TGI of over 100 µM.
`O=C(O)CCCCCCCCC(=O)O` was tested, and the TGI was over 500 µM.
For `CC1(C)CC(C#Cc2ccccc2)CC(C)(C)N1O`, the TGI was 35.7 µM.
`c1ccc(-c2nc(N3CCCNCC3)c3nc(-c4ccccc4)oc3n2)cc1` was tested, and the GI50 was 1.58 µM and the TGI was 2.95 µM.
`COc1ccc2c(NCCCCCCNc3c4ccccc4nc4cc(OC)ccc34)c3ccccc3nc2c1` gave a TGI of 3.31 µM.
With `N#C/C(=C1\SC(N=Nc2ccc(Cl)cc2)C(=O)N1c1ccccc1)c1nc2ccccc2[nH]1` (centres undefined) the TGI was 96.1 µM.
Molecule `S=C1NC2=C(CSC/C2=C\c2ccccc2)C(c2ccccc2)N1` (centres undefined) has a TGI of over 100 µM.
`Cc1cc2c(cc1Cl)S/C(=C/C(=O)O)C(Nc1cccc3nsnc13)=NS2(=O)=O` showed a GI50 of 52.9 µM and a TGI of over 72.1 µM.
For `CC1OC(c2ccc3c(c2O)C(=O)C2=C(C3=O)C3(O)C(=O)CC(C)(O)CC3(O)C=C2)CC(O)C1O` (centres undefined), the TGI was over 100 µM.
Molecule `Cc1c(C)c(CC(=O)N2CC2)c(C)c(C)c1CC(=O)N1CC1` has a TGI of 46.8 µM.
`COc1cc(/C=C2\CCC(C)/C(=C\c3cc(OC)c(OC)c(OC)c3)C2=O)cc(OC)c1OC` (centres undefined) showed a TGI of over 100 µM.
With `COc1ccc(F)c(F)c1C(=O)c1cnc(NC2CCN(S(C)(=O)=O)CC2)nc1N` the GI50 was 0.804 µM and 0.48 µM and the TGI was over 22.8 µM.
Work on `CC1(C)CC(=O)C(CC2C(=O)c3ccccc3C2=O)C(=O)C1` yielded a TGI of over 100 µM.
In the case of `CC(=O)[CH-]C(=O)c1ccccc1.CC(=O)[CH-]C(=O)c1ccccc1.CC1(C)OCC(C2OC3OC(C)(C)OC3C2[O-])O1.CC[O-].[Ti+4]` (centres undefined), the GI50 is reported as 11.2 µM and the TGI is reported as 31.6 µM.
`C[n+]1c(/C=C/c2ccc(O)c3ncccc23)[se]c2ccccc21` showed a TGI of 21.6 µM.
`COC(=O)[C@H](Cc1ccccc1)NC(=O)N(CCC#N)CCN(C(=O)N[C@@H](Cc1ccccc1)C(=O)OC)c1ccccc1` showed a TGI of 42.1 µM.
`CC(C)[O-].CC(C)[O-].O=c1cccccc1[O-].O=c1cccccc1[O-].[Ti+4]` was tested, and the TGI was over 100 µM.
In the case of `Cc1cccc(/C(Br)=C2/OC(=O)c3ccccc32)c1`, the TGI is reported as over 100 µM.
Molecule `Nc1nc(Nc2ccccc2)sc1C(=O)c1ccco1` has a TGI of 57.8 µM.
Molecule `Fc1ccc2nc(-c3cc(-c4ccc5c(c4)OCO5)n[nH]3)[nH]c2c1` has a GI50 of 6.3 µM and a TGI of over 100 µM.
`CCOC(=O)N1CCN(CCCCCOc2ccccc2C2CCCCC2)CC1` was tested, and the GI50 was 13.9 µM and the TGI was 28.4 µM.
In the case of `COc1nc2c(N3CCCC3)nc(N3CCNCC3)nc2nc1NCc1ccccc1`, the TGI is reported as 10.1 µM.
For `O=c1[nH]c2cc([N+](=O)[O-])ccc2nc1/C(=N\Nc1ccccc1)C(O)c1ccc2c(c1)OCO2` (centres undefined), the TGI was over 100 µM.
Work on `CC(C)[O-].CC(C)[O-].CN(CCN(C)Cc1cc(F)cc(F)c1[O-])Cc1cc(F)cc(F)c1[O-].[Ti+4]` yielded a GI50 of 0.691 µM and a TGI of 4.83 µM.
With `CSc1nc2c(ncn2C2OC(CO)C(O)C(O)C2O)c(=O)[nH]1` (centres undefined) the TGI was over 100 µM.
`COc1ccc2[nH]c(-c3ccc(O)cc3)cc(=O)c2c1` showed a TGI of over 100 µM.
`Cc1cc(NS(=O)(=O)c2ccc(NC(NC(=O)C(C(F)(F)F)C(F)(F)F)(C(F)(F)F)C(F)(F)F)cc2)no1` showed a TGI of over 100 µM.
`C[C@]12CC[C@@H]3c4ccc(O)cc4CC[C@H]3[C@@H]1C/C(=C\c1ccc(C#N)cc1)C2=O` gave a TGI of over 100 µM.
`COC(=O)C1(O)C(c2ccccc2)=NC2(C)CCCC21` (centres undefined) was tested, and the TGI was over 100 µM.
